US20160002318A1

B1: CR10051 (antibody, V domains shown)
VH: EVQLVQSGAEVKKPGASVELSCKASGDTFTNYHIHWVRQAPGQGLEWMGIINPSGGDTDYSQKFQGRVTLTRDRSTNTFYMKLASLRSEDTAVYYCATDESPGLLTGLRDYWYYYGMDVWGQGTTVTVS
VL: [in this place about 100 residues]SFGQGTKLEIK
B2: CR10049 (antibody, V domains shown)
VH: EVQLVESGGGLVQPGGSLRLSCAASGFTFSSYAMSWVRQAPGKGLEWVSRLSDESTTYYADSVKGRFTISRDNSKNTLYLQMNSLKADDTAIYYCAEDLGTVMDSYYYGMNVWGPGTTVTVS
VL: [in this place about 120 residues]

Experiments:
Test in all cases: cell-based or functional assay
[1] = biological target: HA of influenza B virus B/Brisbane/60/2008 (live virus) (influenza B virus B/Brisbane/60/2008)
[2] = biological target: HA of influenza B virus B/Florida/04/2006 (live virus) (influenza B virus B/Florida/04/2006)
[3] = biological target: HA of influenza B virus B/Harbin/7/1994 (live virus) (influenza B virus B/Harbin/7/1994)
[4] = biological target: HA of influenza B virus B/Malaysia/2506/2004 (live virus) (influenza B virus B/Malaysia/2506/2004)

| Binder | HI titers [1] [µg/mL] | VNA titers [1] [µg/mL] | HI titers [2] [µg/mL] | VNA titers [2] [µg/mL] | HI titers [3] [µg/mL] | VNA titers [3] [µg/mL] | HI titers [4] [µg/mL] | VNA titers in µg/ml (*assay was done with 25 TCIDs) [4] [µg/mL] |
| --- | --- | --- | --- | --- | --- | --- | --- | --- |
| B1 | > 50 | 1.51 | > 50 | 0.63 | > 50 | 0.28 | > 50 | 1.77 |
| B2 | 35.4 | 35.4 | 1.1 | 1.3 | > 50 | 4.42 | 4.42 | 25 |
